# Results taken from the supplement of paper PMC4967469.
# A lower IC50 marks a more sensitive line; where the fit passes the top or lowest dose, that dose stands as a limit. AUC, from the same fit, is the share of area under the viability curve across the 256-fold dose range; it is 1 without any effect and falls as sensitivity rises. For part of these data: A top dose marked as inferred was calculated from the reported fits. For part of these data: An entry number marks a drug with two screens in the source, which often give different values.
# How the values were obtained:
# Experiment in all cases: Viability of human cancer cell lines after 72 h of drug (GDSC screen)
# Docetaxel = compound: CC(=O)O[C@@]12CO[C@@H]1C[C@H](O)[C@@]1(C)C(=O)[C@H](O)C3=C(C)[C@@H](OC(=O)[C@H](O)[C@@H](NC(=O)OC(C)(C)C)c4ccccc4)C[C@@](O)([C@@H](OC(=O)c4ccccc4)[C@H]21)C3(C)C [Docetaxel]; details: top dose 0.0125 µM
# Experimental: (§1)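 Human cancer cell lines in 384-well plates, medium with 10% serum, drug for 72 h over a 256-fold dose range (nine 2-fold or five 4-fold steps up to the top dose). Adherent lines were fixed and stained with the nucleic acid dye Syto60, suspension lines read with resazurin; signal relative to control wells, capped at 0 and 100%. One two-parameter sigmoid per drug and line, fitted in a mixed model over all curves with the slope shared within a line.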
# AMG-706 = compound: CC1(C)CNc2cc(NC(=O)c3cccnc3NCc3ccncc3)ccc21 [AMG-706]; details: top dose 2 µM; top dose inferred
# Experimental: as §1
# JNK Inhibitor VIII = compound: CCOc1nc(NC(=O)Cc2cc(OC)ccc2OC)cc(N)c1C#N [JNK Inhibitor VIII]; details: top dose 10 µM; top dose inferred
# Experimental: as §1
# NSC-207895 = compound: CN1CCN(c2ccc([N+](=O)[O-])c3no[n+]([O-])c23)CC1 [NSC-207895]; details: top dose 20 µM; top dose inferred
# Experimental: as §1
# YM155 = compound: COCC[n+]1c2c(n(Cc3cnccn3)c1C)C(=O)c1ccccc1C2=O [YM155]; details: top dose 5.12 µM
# Experimental: as §1
# SB-715992 = compound: Cc1ccc(C(=O)N(CCCN)[C@@H](c2nc3cc(Cl)ccc3c(=O)n2Cc2ccccc2)C(C)C)cc1 [SB-715992]; details: top dose 0.128 µM; top dose inferred
# Experimental: as §1
# JQ1 = compound: Cc1sc2c(c1C)C(c1ccc(Cl)cc1)=N[C@@H](CC(=O)OC(C)(C)C)c1nnc(C)n1-2 [JQ1]; details: top dose 1 µM; screen: GDSC drug entry 1218; top dose inferred
# Experimental: as §1
# Belinostat = compound: O=C(/C=C/c1cccc(S(=O)(=O)Nc2ccccc2)c1)NO [Belinostat]; details: top dose 20 µM; top dose inferred
# Experimental: as §1
# JNJ-26854165 = compound: c1ccc2c(CCNc3ccc(Nc4ccncc4)cc3)c[nH]c2c1 [JNJ-26854165]; details: top dose 10 µM
# Experimental: as §1
Cell Line,AUC (Docetaxel),IC50 (Docetaxel) [nM],AUC (AMG-706),IC50 (AMG-706) [nM],AUC (JNK Inhibitor VIII),IC50 (JNK Inhibitor VIII) [nM],AUC (NSC-207895),IC50 (NSC-207895) [nM],AUC (YM155),IC50 (YM155) [nM],AUC (SB-715992),IC50 (SB-715992) [nM],AUC (JQ1),IC50 (JQ1) [nM],AUC (Belinostat),IC50 (Belinostat) [nM],AUC (JNJ-26854165),IC50 (JNJ-26854165) [nM]
"D-423MG (glioma, adherent)",0.603,1.6,0.981,> 2000,0.957,> 10000,0.732,6740,0.033,< 20,0.903,> 128,0.978,> 1000,0.384,557,0.892,> 10000
"D-566MG (glioma, adherent)",0.348,0.299,0.982,> 2000,0.979,> 10000,0.829,12200,0.03,< 20,0.987,> 128,0.972,> 1000,0.367,539,0.799,4720
"DOV13 (ovary, adherent)",0.661,2.36,0.964,> 2000,0.954,> 10000,0.962,> 20000,0.616,702,0.981,> 128,0.953,> 1000,0.984,> 20000,0.873,> 10000
"EMC-BAC-1 (lung adenocarcinoma, adherent)",0.593,1.46,0.977,> 2000,0.975,> 10000,0.923,> 20000,0.237,48.8,0.795,69.2,0.982,> 1000,0.576,2070,0.82,6790
"ESO26 (oesophagus, adherent)",0.823,6.82,0.984,> 2000,0.988,> 10000,0.862,15500,0.026,< 20,0.556,11.2,0.988,> 1000,0.349,490,0.944,> 10000
"FLO-1 (oesophagus, adherent)",0.491,0.732,0.894,> 2000,0.955,> 10000,0.804,15900,0.043,< 20,0.829,> 128,0.973,> 1000,0.53,1560,0.868,> 10000
"Hey (ovary, adherent)",0.61,1.54,0.958,> 2000,0.948,> 10000,0.838,12400,0.031,< 20,0.965,> 128,0.949,> 1000,0.343,471,0.851,6980
"JHOS-2 (ovary, adherent)",0.692,2.97,0.909,> 2000,0.973,> 10000,0.425,754,0.033,< 20,0.972,> 128,0.97,> 1000,0.5,1250,0.942,> 10000
"JHOS-3 (ovary, adherent)",0.916,> 12.5,0.965,> 2000,0.953,> 10000,0.902,> 20000,0.074,< 20,0.978,> 128,0.979,> 1000,0.817,15300,0.91,> 10000
"KMS-11 (myeloma, suspension)",0.968,> 12.5,0.977,> 2000,0.984,> 10000,0.808,8590,0.046,< 20,0.788,47.4,0.782,355,0.229,237,0.985,> 10000
"KYAE-1 (oesophagus, suspension)",0.915,> 12.5,0.98,> 2000,0.964,> 10000,0.819,13000,0.099,< 20,0.974,> 128,0.974,> 1000,0.389,597,0.86,9930
"MOLT-13 (T-cell lymphoblastic leukaemia, suspension)",0.871,9.37,0.989,> 2000,0.988,> 10000,0.837,11200,0.025,< 20,0.555,11.1,0.653,157,0.069,< 78.1,0.93,> 10000
"NCC021 (kidney, adherent)",0.907,> 12.5,0.942,> 2000,0.969,> 10000,0.925,> 20000,0.301,79.4,0.981,> 128,0.981,> 1000,0.355,461,0.928,> 10000
"OACM5-1 (oesophagus, semi-adherent)",0.98,> 12.5,0.978,> 2000,0.968,> 10000,0.825,14100,0.053,< 20,0.616,17.4,0.982,> 1000,0.371,525,0.972,> 10000
"OC-314 (ovary, adherent)",0.743,3.41,0.982,> 2000,0.981,> 10000,0.645,2950,0.018,< 20,0.737,33.6,0.99,> 1000,0.49,1180,0.884,8180
"OV-7 (ovary, adherent)",0.692,3.59,0.961,> 2000,0.942,> 10000,0.805,17200,0.112,< 20,0.936,> 128,0.951,> 1000,0.441,796,0.906,> 10000
"OV-17R (ovary, adherent)",0.953,> 12.5,0.893,> 2000,0.967,> 10000,0.865,> 20000,0.057,< 20,0.937,> 128,0.924,> 1000,0.332,350,0.95,> 10000
"OV-56 (ovary, adherent)",0.84,8.07,0.945,> 2000,0.942,> 10000,0.886,> 20000,0.055,< 20,0.943,> 128,0.988,> 1000,0.446,894,0.889,> 10000
"OVCA420 (ovary, adherent)",0.954,> 12.5,0.982,> 2000,0.981,> 10000,0.76,9290,0.215,34,0.971,> 128,0.933,> 1000,0.46,935,0.952,> 10000
"OVCA433 (ovary, adherent)",0.692,2.88,0.983,> 2000,0.981,> 10000,0.857,19300,0.032,< 20,0.972,> 128,0.982,> 1000,0.533,1560,0.964,> 10000
"OVK-18 (ovary, adherent)",0.75,4.49,0.958,> 2000,0.934,> 10000,0.891,> 20000,0.733,1610,0.986,> 128,0.98,> 1000,0.986,> 20000,0.906,> 10000
"PEO1 (ovary, adherent)",0.851,10.2,0.948,> 2000,0.959,> 10000,0.811,11100,0.047,< 20,0.87,127,0.985,> 1000,0.412,712,0.959,> 10000
"QGP-1 (pancreas, adherent)",0.91,> 12.5,0.954,> 2000,0.965,> 10000,0.858,> 20000,0.07,< 20,0.942,> 128,0.966,> 1000,0.442,787,0.973,> 10000
"RCC-AB (kidney, adherent)",0.842,> 12.5,0.945,> 2000,0.96,> 10000,0.831,18300,0.049,< 20,0.733,45.9,0.977,> 1000,0.245,180,0.928,> 10000
"RCC-ER (kidney, adherent)",0.937,> 12.5,0.88,> 2000,0.908,> 10000,0.975,> 20000,0.899,> 5120,0.972,> 128,0.957,> 1000,0.907,> 20000,0.807,5900
"RCC-FG2 (kidney, adherent)",0.978,> 12.5,0.872,> 2000,0.875,> 10000,0.982,> 20000,0.363,121,0.923,> 128,0.976,> 1000,0.475,1050,0.753,4180
"RCC-JF (kidney, adherent)",0.7,3.09,0.955,> 2000,0.945,> 10000,0.77,8560,0.032,< 20,0.754,48,0.981,> 1000,0.33,395,0.76,3940
"RCC-JW (kidney, adherent)",0.669,2.35,0.844,1490,0.916,> 10000,0.798,9800,0.027,< 20,0.952,> 128,0.984,> 1000,0.452,918,0.919,> 10000
"SK-GT-4 (oesophagus, adherent)",0.634,2,0.952,> 2000,0.974,> 10000,0.881,> 20000,0.039,< 20,0.887,> 128,0.971,> 1000,0.363,475,0.849,> 10000
"SK-MEL-5 (melanoma, adherent)",0.674,2.68,0.961,> 2000,0.97,> 10000,0.981,> 20000,0.796,3020,0.966,> 128,0.979,> 1000,0.971,> 20000,0.856,> 10000
